Experiment [1] has as its system 4 ccRCC cell lines. Nature of the experiment: High-throughput proliferative screen, single point. To be noted: in at least 2/4 ccRCC cell lines.
Experiment [2] has as its system ACHN. Put plainly: Proliferation dose-response IC50, ACHN. It counts as cell-based. To be noted: Homo sapiens, proliferative IC50, linear regression modeling of dose-response, read-out: IC50 (μM) ACHN. On the procedure:
(§1) Error bars indicate standard deviation for n=2 replicates. […] To evaluate inhibition of SCD1 by these molecules, we used LC/MS to quantify changes in SCD1-catalyzed conversion of stearoyl-CoA to oleoyl-CoA in response to drug treatments in vitro using SCD1 protein extracted from murine liver (Figure 3c, Supplementary Figure 2g). […] Synthesis routes and spectral data including NMR and MS are also provided (Supplementary Figures 3-6).
(§2) Cells were seeded at 5,000 cells/well in clear-bottom 96-well plates in triplicate. Drug treatment was applied at 1:1000 in reduced serum conditions (3%). […] Alternatively, cells were plated 2x10^5/well in 12-well plates (Genesee Scientific) in triplicate prior to drug treatment. After 120-hour treatment, cell number was established using a Coulter Particle Counter (Beckman). Oleic acid-albumin (Sigma Aldrich) was added to media at 5µM, and was applied adjuvant to drug treatment. Drug stocks were prepared in DMSO (Sigma) at 1000x. IC50 dosing per cell line was calculated using CalcuSyn analytical software.

Experiment [3] deals with Caki1. Put plainly: Proliferation dose-response IC50, Caki1. It counts as cell-based. To be noted: Homo sapiens, CAKI-1; proliferative IC50, linear regression modeling of dose-response; read-out: IC50 (μM) Caki1. On the procedure: as §1, §2
Experiment [4] deals with Caki2. Put plainly: Proliferation dose-response IC50, Caki2. It is filed as cell-based. To be noted: Homo sapiens, CAKI-2; proliferative IC50, linear regression modeling of dose-response; read-out: IC50 (μM) Caki2. On the procedure: as §1, §2

Broadly, the IC50 is the concentration needed to halve the response being measured.

SMILES strings stand for the structures. Some results are limits rather than exact numbers.

The compound `O=C(Nc1ccc(OCc2ccccc2)nc1)N1CCN(C(=O)c2ccccc2C(F)(F)F)CC1` [SSI-2] gave a decrease in proliferation in experiment [1] of over 40%.
Turning to `O=C(NCc1ccnc(OCc2ccccc2)c1)N1CCN(C(=O)c2ccccc2C(F)(F)F)CC1` [SSI-3], the decrease in proliferation in experiment [1] is over 40%.
The same measure, in the same setting: as for `CNC(=O)c1ccccc1OCC(=O)N1CCN(C(=O)c2ccccc2C(F)(F)F)CC1` [SSI-1], the figure is over 40%.
Turning to `CNC(=O)c1cc(S(=O)(=O)N2CCC(Oc3ccccc3Cl)CC2)c[nH]1` [SetA.68], the IC50 was 0.05 µM in experiment [2], 12 µM in experiment [3] and 0.009 µM in experiment [4]. Moreover, the decrease in proliferation in experiment [1] is reported as over 40%.
